Measured values from the supplement of paper PMC3334620.
Over roughly 33,000 sequences, “E-score (-0.5 to 0.5)” has its median near -0.012; the highest 2% begin near 0.29. This is one part of the list.

Target: T1, Ybr033w (UniProt P38073)
T1 sequence: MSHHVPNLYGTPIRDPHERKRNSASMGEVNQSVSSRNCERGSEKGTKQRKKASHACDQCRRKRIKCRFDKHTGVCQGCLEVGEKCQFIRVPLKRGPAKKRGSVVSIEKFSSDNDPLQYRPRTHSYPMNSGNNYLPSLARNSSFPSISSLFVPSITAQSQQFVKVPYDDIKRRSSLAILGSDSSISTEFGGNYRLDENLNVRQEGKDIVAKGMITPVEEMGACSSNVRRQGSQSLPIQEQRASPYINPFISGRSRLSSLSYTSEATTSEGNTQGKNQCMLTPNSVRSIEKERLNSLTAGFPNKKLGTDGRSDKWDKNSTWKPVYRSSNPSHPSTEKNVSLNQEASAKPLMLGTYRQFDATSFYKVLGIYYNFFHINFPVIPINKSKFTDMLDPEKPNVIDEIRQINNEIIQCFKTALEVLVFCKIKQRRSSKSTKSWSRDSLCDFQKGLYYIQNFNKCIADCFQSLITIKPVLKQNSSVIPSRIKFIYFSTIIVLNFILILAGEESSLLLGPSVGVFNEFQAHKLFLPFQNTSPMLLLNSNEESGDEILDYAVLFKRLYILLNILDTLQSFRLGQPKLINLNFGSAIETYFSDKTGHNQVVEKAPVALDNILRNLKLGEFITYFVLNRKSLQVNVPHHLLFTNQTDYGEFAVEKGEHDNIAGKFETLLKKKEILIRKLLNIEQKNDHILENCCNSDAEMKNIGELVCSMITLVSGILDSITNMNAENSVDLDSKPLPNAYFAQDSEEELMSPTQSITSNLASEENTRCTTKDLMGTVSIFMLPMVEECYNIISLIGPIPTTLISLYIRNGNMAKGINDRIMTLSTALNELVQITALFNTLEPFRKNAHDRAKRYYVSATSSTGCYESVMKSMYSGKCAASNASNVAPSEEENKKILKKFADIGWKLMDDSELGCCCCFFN
Test: PBM E-score (8-mer binding enrichment) (E-score (-0.5 to 0.5)); higher = stronger / more preferred TF binding; most listed sequences are background and not binding sites
Settings: protein concentration: 200 nM; construct: GST-full length
In short: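 GST-tagged yeast TFs (full-length or DNA-binding domain) were made by PURExpress in vitro transcription/translation and applied at about 100-200 nM to universal all-10-mer Agilent arrays. The arrays were made double-stranded by primer extension, on fresh or once-stripped slides. Bound protein was detected with fluorescent anti-GST, and scans were normalised with masliner. Each ungapped eight-base word, pooled with its reverse complement, received an E-score (modified Wilcoxon-Mann-Whitney statistic) from the Universal PBM Analysis Suite.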

Sequence | PBM E-score
AGCAAGTG | 0.0477
CATTCGGG | -0.151
ATTGGAGG | -0.0464
CATGAAGG | 0.11
AATTTATA | 0.257
CCGTCTCA | 0.11
GCGCGTCA | 0.0339
ACTAGCTC | 0.012
GAATAAAC | 0.142
ATGCCAAT | -0.0217
AGCGTCCC | -0.172
ATCACCTC | -0.0556
GTAGGGGA | -0.183
ACGCGACT | -0.174
ACGAGGAA | 0.0671
GCGTGGTA | -0.114
AAGCAGAG | 0.0728
ACTCCTGC | -0.0369
GCACTTTA | 0.186
ACGCGACA | 0.0211
GCAGACCA | -0.11
ATCTCGGG | 0.0364
CATCTTAG | -0.0257
GTTTACCA | 0.0505
ATCGATAG | 0.0428

Sequence | PBM E-score
CGGCTCAC | -0.114
AATGGAAA | 0.0971
CGCGAGCC | 0.0104
CCGGGGAA | -0.146
GCAGAGAA | -0.00583
GCCGGTCC | -0.344
GATTATAA | 0.172
ACTGGTCA | 0.11
ATTGAGAG | 0.115
AGCGGTAC | 0.059
AAAGGATA | 0.251
AAGGGCAT | -0.103
GTCTCAAC | -0.0751
AATCACAA | 0.135
AGTCCGAT | 0.0266
CAGTGCGA | -0.149
CCGAAGCC | -0.251
AGCTGATG | 0.123
CCGGACTC | 0.0669
GCCCAACA | -0.21
AATTAGTC | 0.212
AATCCCCT | -0.172
CAGTACAG | -0.0166
CAGGCTTC | 0.08
AGGGTACG | -0.17

Sequence | PBM E-score
ATCCTAGA | -0.0202
ACAGTAGA | 0.194
CAGTAGGG | -0.0739
AGTGTGAC | 0.0281
ACGTCCCC | -0.283
ATAGTCGG | -0.0396
GGCGCGGA | -0.185
TTCTCCAA | 0.11
CGCTAACG | 0.0274
GCAAGGCC | -0.0987
CCTAAACA | -0.0857
ATATCCAA | 0.176
TAGTCTAA | -0.101
AATTGTTC | 0.339
CCGAGCGC | -0.0527
CGTGGGTA | -0.248
CTTGTCAC | -0.0493
AGCATGAC | -0.0225
AGATGTGG | -0.00553
CTGAGTCC | -0.126
GCAAGTAC | -0.0854
AATCGATC | 0.127
AAGACAAG | 0.108
GAAAGGGC | -0.258
AACCCGCC | -0.0266

Sequence | PBM E-score
GGGAGACC | -0.426
GTGATGTA | 0.217
GTACAGAA | 0.0897
CTCACGCC | -0.142
CACACTGA | -0.19
GTCGCCCA | -0.229
ATATAGGG | -0.00433
TGCCTTAA | 0.0475
CTACTACC | 0.15
ACACGTAA | 0.0814
GGTTAAAA | 0.0924
TACCCCCA | -0.229
AGCCTTAC | -0.28
CGTGCTGA | 0.0996
AAACGACG | 0.093
GCCGGGAA | -0.0582
AACCTAGG | -0.00742
CCGAGGGC | -0.1
GATCCTGA | 0.00833
CAGCATCC | -9e-05
CGGGGCAG | -0.147
CCGACGAG | -0.0826
CTTGAATC | 0.105
CTGGAGGA | -0.0112
CACCCAAG | -0.135

Sequence | PBM E-score
GAGAACTA | 0.101
TCATAGCA | 0.156
CAAGATCC | -0.0366
GGAGGGGA | -0.121
GCCAACAA | -0.0138
CCAGCAAG | -0.186
TGCGGTAA | 0.0291
CACGGCCA | -0.15
CCTATGCC | -0.18
GAGGTAGC | -0.172
CGGTCACA | -0.129
ACAAAACG | 0.00516
AATAGTGT | 0.289
ACCGGTCC | -0.319
CCTCTGTA | -0.0969
GACTAACA | 0.0397
AAGTCGTG | -0.0301
AGCAGACC | -0.0803
GAAGCCCC | -0.353
GAAATACC | 0.189
AGGAGAGG | -0.26
AGGCAGGG | -0.0987
ATAGGAAT | 0.135
CAGCGAGC | -0.0742
CAGCATGG | -0.0923

Sequence | PBM E-score
ATATGACC | -0.104
CTTCATGA | 0.132
ACGCACCC | -0.267
CTACGTTC | -0.0534
ATCAGAAT | 0.176
CTCTGTAC | -0.0027
GAACGCTC | -0.133
AGCCCGCC | -0.265
AGCAATCA | 0.129
ACACTAAC | 0.164
CACACCCA | 0.113
ACTAGTGC | -0.0442
ATTTTTGG | 0.0437
CGATAGAC | -0.138
GTCTCCAA | 0.0412
CCTCCTAC | -0.107
GTACTAAA | 0.253
CCGACGTA | -0.169
CACCCGGA | 0.116
CCCCGGAC | -0.185
CAACGGAG | -0.0398
CCACTCAG | -0.0712
CTTACAGC | 0.00203
ATCGCCCC | -0.345
CTTACTAC | 0.144

Sequence | PBM E-score
CAGGACTG | -0.233
GGAGGGAC | -0.188
CGAACGCG | 0.00834
TCCCTCGA | -0.22
CGTTTCGC | -0.18
GCAACTAA | 0.213
GTCGTCTA | -0.0547
AGTAAACA | 0.251
AGGCCTCA | -0.334
CAAGAAGC | 0.15
ACTAACGA | 0.107
CGTCGTGA | -0.239
GCCCCGCC | -0.072
CCTTCATA | -0.0235
AGGGGACT | -0.203
GAGTTAGC | 0.0319
ACCTTTGG | -0.336
GTGCGCAA | -0.227
ATGCTACA | 0.0818
CCTGCACG | -0.159
AAGGTAGC | -0.0713
CGTAAGAA | 0.0778
